Reference: paper PMC12820563, “FoxP3 forms a head-to-head dimer in vivo and stabilizes its multimerization on adjacent microsatellites”
The list shows a part of the results.

Each sequence was assayed against T1, MBP-FoxP1dN (Mus musculus, UniProt P58462 326-579) (assay: PD-seq (MBP pull-down with sequencing); 20 mM Tris-HCl pH 7.5, 100 mM NaCl, 1.5 mM MgCl2, 0.4 uM protein, 0.1 uM dsDNA library, 30 min, room temperature, amylose pull-down; high values mean tight binding). Details: protein: recombinant; tags: His6-MBP; chain copies: 2; dsDNA, one strand shown.
T1 sequence: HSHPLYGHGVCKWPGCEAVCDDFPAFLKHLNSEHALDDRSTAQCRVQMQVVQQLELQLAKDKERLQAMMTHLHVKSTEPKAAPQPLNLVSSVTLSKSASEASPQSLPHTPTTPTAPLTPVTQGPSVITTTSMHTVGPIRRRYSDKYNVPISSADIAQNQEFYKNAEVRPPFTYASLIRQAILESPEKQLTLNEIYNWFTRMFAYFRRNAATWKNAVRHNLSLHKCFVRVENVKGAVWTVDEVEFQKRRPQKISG
Summary of the method: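 The N-terminus-lacking fragment of mouse FoxP3 or FoxP1 carried a His6-MBP tag and was expressed in E. coli. At 0.4 µM it was incubated with 0.1 µM Klenow-filled degenerate double-stranded DNA library for 30 min at room temperature in Tris pH 7.5 buffer with NaCl and MgCl2, and complexes were caught on amylose resin, washed three times, released with proteinase K, PCR-barcoded and Illumina-sequenced. Binding is reads-per-million enrichment of pull-down over input with replicates pooled.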

Sequence | binding signal
GATGATTGTTCTCCCAGCTGATGAATTTCTGAAGTCGAGTAAACAAATTTTCCTAATCTTTCTGTTCAAGCGCCATCTAC | 0.815 RPM ratio (pull-down/input)
GATGATTGTTCTCCCAGCTGATGAATTCTCAAGTTCGAGTAAACAAATTTTCCTAATCTTTCTGTTCAAGCGCCATCTAC | 0.843 RPM ratio (pull-down/input)
GATGATTGTTCTCCCAGCTGATGAATTTGGGGCGTCGAGTAAACAAATTTTCCTAATCTTTCTGTTCAAGCGCCATCTAC | 0.889 RPM ratio (pull-down/input)
GATGATTGTTCTCCCAGCTGATGAATTGATACTCTCGAGTAAACAAATTTTCCTAATCTTTCTGTTCAAGCGCCATCTAC | 1.05 RPM ratio (pull-down/input)
GATGATTGTTCTCCCAGCTGATGAATTTACCGTATCGAGTAAACAAATTTTCCTAATCTTTCTGTTCAAGCGCCATCTAC | 1.2 RPM ratio (pull-down/input)
GATGATTGTTCTCCCAGCTGATGAATTCCCACTATCGAGTAAACAAATTTTCCTAATCTTTCTGTTCAAGCGCCATCTAC | 0.861 RPM ratio (pull-down/input)
GATGATTGTTCTCCCAGCTGATGAATTCATCTTTTCGAGTAAACAAATTTTCCTAATCTTTCTGTTCAAGCGCCATCTAC | 0.966 RPM ratio (pull-down/input)
GATGATTGTTCTCCCAGCTGATGAATTCCGAGAATCGAGTAAACAAATTTTCCTAATCTTTCTGTTCAAGCGCCATCTAC | 0.869 RPM ratio (pull-down/input)
GATGATTGTTCTCCCAGCTGATGAATTTCTGTCCTCGAGTAAACAAATTTTCCTAATCTTTCTGTTCAAGCGCCATCTAC | 0.915 RPM ratio (pull-down/input)
GATGATTGTTCTCCCAGCTGATGAATTGTAAGGGTCGAGTAAACAAATTTTCCTAATCTTTCTGTTCAAGCGCCATCTAC | 0.872 RPM ratio (pull-down/input)
GATGATTGTTCTCCCAGCTGATGAATTAGGTGGTTCGAGTAAACAAATTTTCCTAATCTTTCTGTTCAAGCGCCATCTAC | 0.892 RPM ratio (pull-down/input)
GATGATTGTTCTCCCAGCTGATGAATTGTGGGCTTCGAGTAAACAAATTTTCCTAATCTTTCTGTTCAAGCGCCATCTAC | 0.932 RPM ratio (pull-down/input)
GATGATTGTTCTCCCAGCTGATGAATTAAGAATGTCGAGTAAACAAATTTTCCTAATCTTTCTGTTCAAGCGCCATCTAC | 0.79 RPM ratio (pull-down/input)
GATGATTGTTCTCCCAGCTGATGAATTCCGTCGCTCGAGTAAACAAATTTTCCTAATCTTTCTGTTCAAGCGCCATCTAC | 0.805 RPM ratio (pull-down/input)
GATGATTGTTCTCCCAGCTGATGAATTTGTCGCCTCGAGTAAACAAATTTTCCTAATCTTTCTGTTCAAGCGCCATCTAC | 1.05 RPM ratio (pull-down/input)
GATGATTGTTCTCCCAGCTGATGAATTTGCAGGGTCGAGTAAACAAATTTTCCTAATCTTTCTGTTCAAGCGCCATCTAC | 0.861 RPM ratio (pull-down/input)

Sequence | binding signal
GATGATTGTTCTCCCAGCTGATGAATTTAGCGAGTCGAGTAAACAAATTTTCCTAATCTTTCTGTTCAAGCGCCATCTAC | 0.922 RPM ratio (pull-down/input)
GATGATTGTTCTCCCAGCTGATGAATTACTTACCTCGAGTAAACAAATTTTCCTAATCTTTCTGTTCAAGCGCCATCTAC | 1.04 RPM ratio (pull-down/input)
GATGATTGTTCTCCCAGCTGATGAATTTATGCCGTCGAGTAAACAAATTTTCCTAATCTTTCTGTTCAAGCGCCATCTAC | 1.12 RPM ratio (pull-down/input)
GATGATTGTTCTCCCAGCTGATGAATTTGGCTCTTCGAGTAAACAAATTTTCCTAATCTTTCTGTTCAAGCGCCATCTAC | 0.858 RPM ratio (pull-down/input)
GATGATTGTTCTCCCAGCTGATGAATTCCTTCAATCGAGTAAACAAATTTTCCTAATCTTTCTGTTCAAGCGCCATCTAC | 0.917 RPM ratio (pull-down/input)
GATGATTGTTCTCCCAGCTGATGAATTATTCAGATCGAGTAAACAAATTTTCCTAATCTTTCTGTTCAAGCGCCATCTAC | 0.97 RPM ratio (pull-down/input)
GATGATTGTTCTCCCAGCTGATGAATTGGCGGGTTCGAGTAAACAAATTTTCCTAATCTTTCTGTTCAAGCGCCATCTAC | 0.805 RPM ratio (pull-down/input)
GATGATTGTTCTCCCAGCTGATGAATTTAGCGCGTCGAGTAAACAAATTTTCCTAATCTTTCTGTTCAAGCGCCATCTAC | 1 RPM ratio (pull-down/input)
GATGATTGTTCTCCCAGCTGATGAATTAGAGGGGTCGAGTAAACAAATTTTCCTAATCTTTCTGTTCAAGCGCCATCTAC | 0.823 RPM ratio (pull-down/input)
GATGATTGTTCTCCCAGCTGATGAATTCACGGCATCGAGTAAACAAATTTTCCTAATCTTTCTGTTCAAGCGCCATCTAC | 1.02 RPM ratio (pull-down/input)
GATGATTGTTCTCCCAGCTGATGAATTTGGTCAGTCGAGTAAACAAATTTTCCTAATCTTTCTGTTCAAGCGCCATCTAC | 0.894 RPM ratio (pull-down/input)
GATGATTGTTCTCCCAGCTGATGAATTGCACGTCTCGAGTAAACAAATTTTCCTAATCTTTCTGTTCAAGCGCCATCTAC | 1.15 RPM ratio (pull-down/input)
GATGATTGTTCTCCCAGCTGATGAATTCGCATTTTCGAGTAAACAAATTTTCCTAATCTTTCTGTTCAAGCGCCATCTAC | 1.22 RPM ratio (pull-down/input)
GATGATTGTTCTCCCAGCTGATGAATTAGTCCCCTCGAGTAAACAAATTTTCCTAATCTTTCTGTTCAAGCGCCATCTAC | 0.831 RPM ratio (pull-down/input)
GATGATTGTTCTCCCAGCTGATGAATTCATTGTCTCGAGTAAACAAATTTTCCTAATCTTTCTGTTCAAGCGCCATCTAC | 0.891 RPM ratio (pull-down/input)
